{
  "source": "PubChem BioAssay AID485294",
  "about": "(National Center for Advancing Translational Sciences (NCATS), 2010)",
  "note": "Hit rate of the full screen: of about 370,000 compounds, about 150 (0.041%) were called active. This list was built around the results that the source calls inconclusive (neither active nor inactive); the mix of calls is not that of the screen. The call rests on the fitted dose curve; in most records, active means well fitted inhibition curve with a large enough effect; inconclusive means small, poorly fitted or top-dose-only effect; inactive means flat fitted curve, though single readings scatter. No potency is given beside an inconclusive call; the fits are too rough. Potency means the concentration at half of the fitted maximal effect; tags describe the fitted curve by direction and shape.",
  "data": [
    {"target": "Beta-lactamase (Escherichia coli (strain K12)) (UniProt P00811)", "sequence (P00811 whole entry, looked up)": "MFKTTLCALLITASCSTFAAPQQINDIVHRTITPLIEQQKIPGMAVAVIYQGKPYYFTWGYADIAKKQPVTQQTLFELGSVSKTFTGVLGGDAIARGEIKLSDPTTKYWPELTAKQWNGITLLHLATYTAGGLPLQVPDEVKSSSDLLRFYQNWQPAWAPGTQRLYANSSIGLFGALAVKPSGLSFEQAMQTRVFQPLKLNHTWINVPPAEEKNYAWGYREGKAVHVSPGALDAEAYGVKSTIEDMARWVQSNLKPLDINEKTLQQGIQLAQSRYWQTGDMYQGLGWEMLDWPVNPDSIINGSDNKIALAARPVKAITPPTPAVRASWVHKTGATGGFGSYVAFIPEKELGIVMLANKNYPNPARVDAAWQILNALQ", "experiment": "qHTS Inhibitors of AmpC Beta-Lactamase (assay with detergent); further: nearly all actives have a fitted effect of over 25% in size", "conditions": "AmpC hydrolysis of nitrocefin, absorbance 480 nm, 0.01% Triton; series mostly up to 114 µM", "procedure,_shortened": "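20 mM phosphate pH 7.0 + 0.01% (detergent screen) or 0.0001% Triton X-100; 5.3 nM AmpC reagent; cpd preinc 15 min RT; nitrocefin (800 uM stock) to start; A480 q20 s × 4 min; Activity was normalised to no-enzyme and no-compound control wells.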", "values": [
      {"smiles": "CCOc1cc(CNCCSc2nnnn2-c2ccccc2)ccc1OC", "Potency": "inactive"},
      {"smiles": "COc1cccc(CNC(=O)c2nnn(CC(=O)Nc3ccc(C)c(C)c3)c2N)c1", "Potency": "inconclusive [inhibitor, partial curve, poor fit]"},
      {"smiles": "Nc1nc(Nc2ccccc2)nc2ccccc12", "Potency": "inactive"},
      {"smiles": "O=C(Nc1ccccc1C(F)(F)F)c1cc2ccccn2n1", "Potency": "inactive"},
      {"smiles": "C=CCNC(=O)COc1coc(CN2CCN(Cc3ccccc3)CC2)cc1=O", "Potency": "inconclusive [inhibitor, full curve, poor fit]"},
      {"smiles": "O=C(Nc1nnc(COc2ccc(Cl)cc2)s1)C1CCCO1", "note": "(configuration not stated)", "Potency": "inactive"},
      {"smiles": "CN1CCN(S(=O)(=O)c2cccc(C(=O)NCCOc3ccccc3)c2)CC1", "Potency": "inconclusive [inhibitor, full curve]"},
      {"smiles": "C=CCn1c(=NC(=O)c2ccco2)sc2cc(C(=O)OC)ccc21", "Potency": "inconclusive [inhibitor, full curve, poor fit]"},
      {"smiles": "CCC(=O)c1ccc(OCC(=O)Nc2ccccc2C(=O)N2CCCCC2)cc1", "Potency": "inconclusive [inhibitor, full curve, poor fit]"},
      {"smiles": "COC(=O)COc1cccc2c(=O)n(CC(=O)NCCc3ccccc3)ccc12", "Potency": "inconclusive [inhibitor, full curve, poor fit]"},
      {"smiles": "Cc1c(OCC(=O)NCCCN2CCOCC2)ccc2c(-c3ccccc3)cc(=O)oc12", "Potency": "inconclusive [inhibitor, full curve]"},
      {"smiles": "COCc1[nH][nH]c(=O)c1C=Nc1ccc(C(F)(F)F)cc1", "Potency": "inconclusive [inhibitor, full curve]"},
      {"smiles": "CCOCC(=O)Nc1nnc(C2CCCCC2)s1", "Potency": "inconclusive [inhibitor, full curve]"},
      {"smiles": "O=C(NN1CCOCC1)c1ccco1", "Potency": "inconclusive [inhibitor, full curve]"},
      {"smiles": "CCOC(=O)c1c(CSc2ccccc2)oc2cc(Br)c(O)c(CN(C)C)c12", "Potency": "inactive"},
      {"smiles": "CCOC(=O)Cc1nnc(NC(=O)CSc2nnc3c4ccccc4n(C(C)C)c3n2)s1", "Potency": "inconclusive [inhibitor, single point]"},
      {"smiles": "COc1cc(OC)c(C(=O)NNC(=O)CN(C)S(=O)(=O)c2ccc(Cl)cc2)cc1OC", "Potency": "inconclusive [inhibitor, full curve, poor fit]"},
      {"smiles": "Cc1cc(-c2ccc(C(C)C)c(S(=O)(=O)NCc3ccco3)c2)on1", "Potency": "inconclusive [inhibitor, full curve, poor fit]"},
      {"smiles": "Fc1cccc(Cl)c1CSc1nnc2ccccn12", "Potency": "inactive"},
      {"smiles": "Fc1ccc2c(c1)C(c1cccnc1)=NNC(c1cccs1)=N2", "Potency": "inconclusive [inhibitor, full curve, poor fit]"},
      {"smiles": "Cc1ccc(C(=O)Nc2ccc3c(c2)CCC3)cc1S(=O)(=O)N1CCOCC1", "Potency": "inconclusive [inhibitor, partial curve]"},
      {"smiles": "Cc1c(CNC(=O)C2CC2)c(-n2cccc2)n(Cc2ccccc2)c1C", "Potency": "inconclusive [inhibitor, full curve]"},
      {"smiles": "COc1ccccc1NS(=O)(=O)c1ccc2oc(N)nc2c1", "Potency": "inconclusive [inhibitor, full curve]"},
      {"smiles": "O=C(O)CCCC(=O)N1CC(=O)Nc2ccccc21", "Potency": "inconclusive [inhibitor, full curve]"},
      {"smiles": "O=S(=O)(N/N=C1/CC(c2ccccc2)Oc2ccccc21)c1ccc(Br)cc1", "note": "(configuration not stated)", "Potency": "inconclusive [inhibitor, full curve, poor fit]"},
      {"smiles": "O=C(COC(=O)c1ccccc1[N+](=O)[O-])c1ccc2c(c1)OCO2", "Potency": "inconclusive [inhibitor, full curve, poor fit]"},
      {"smiles": "COc1ccc(NS(=O)(=O)c2cc(NC(=O)CCNC(=O)c3ccco3)ccc2OC)cc1", "Potency": "inconclusive [inhibitor, full curve, poor fit]"},
      {"smiles": "O=C(NC(=S)NCC1CCCO1)c1ccc([N+](=O)[O-])cc1", "note": "(configuration not stated)", "Potency": "inactive"},
      {"smiles": "Cc1oc(-c2ccccc2Cl)nc1Cn1cccc1C1=NC(c2ccccc2)CO1", "note": "(configuration not stated)", "Potency": "inactive"},
      {"smiles": "Cc1cc(NC(=O)C(C)SCC(=O)O)no1", "note": "(configuration not stated)", "Potency": "inconclusive [inhibitor, full curve, poor fit]"},
      {"smiles": "CC(C)CNS(=O)(=O)c1ccc(NC(=O)Cn2nc(-c3ccc(F)cc3)ccc2=O)cc1", "Potency": "inconclusive [inhibitor, full curve]"},
      {"smiles": "O=C1Nc2c(c(=O)[nH]c(=O)n2-c2ccccc2)C(C(F)(F)F)(C(F)(F)F)N1", "Potency": "inconclusive [inhibitor, single point]"},
      {"smiles": "Cc1cc(C)c(S(=O)(=O)N2CCOC2CNC(=O)C(=O)NCc2ccco2)c(C)c1", "note": "(configuration not stated)", "Potency": "inconclusive [inhibitor, partial curve, poor fit]"},
      {"smiles": "Cc1ccc(C(=O)CSc2nnc(CNc3ccc(C)cc3C)o2)cc1", "Potency": "inconclusive [inhibitor, full curve]"},
      {"smiles": "O=C(CN1CCOCC1)Nc1ccccc1NC(=O)C1CCN(c2ncccn2)CC1", "Potency": "inconclusive [inhibitor, full curve]"},
      {"smiles": "O=C1C([N+](=O)[O-])=C(O)c2cccc3cccc1c23", "Potency": "inconclusive [inhibitor, single point]"},
      {"smiles": "O=C(O)c1cc(-c2ccc3c(c2)OCO3)nc2ccccc12", "Potency": "inconclusive [inhibitor, partial curve, poor fit]"},
      {"smiles": "Cn1c(=O)[nH]c(=O)c2c1nc(N1CCCC1)n2CCO", "Potency": "inconclusive [inhibitor, single point]"},
      {"smiles": "CC(C)CC(c1nnnn1Cc1ccco1)N1CCN(C2CCCC2)CC1", "note": "(configuration not stated)", "Potency": "inconclusive [inhibitor, partial curve, poor fit]"},
      {"smiles": "O=C(NCc1ccco1)c1ccc(Cn2c(=O)c3sccc3n(Cc3cccc(F)c3)c2=O)cc1", "Potency": "inconclusive [inhibitor, partial curve, poor fit]"},
      {"smiles": "CC(=O)Nc1cccc(NC(=O)CSc2cn(CC(=O)N3CCCCCC3)c3ccccc23)c1", "Potency": "inactive"},
      {"smiles": "C=CCOc1ccc(CNc2nn[nH]n2)cc1", "Potency": "inconclusive [inhibitor, partial curve, poor fit]"},
      {"smiles": "CC(C)N(C)CCOC(=O)/C=C/c1ccccc1", "Potency": "inconclusive [inhibitor, partial curve, poor fit]"},
      {"smiles": "O=C1c2ccccc2S(=O)(=O)N1CCOc1ccc(F)cc1", "Potency": "inconclusive [inhibitor, partial curve, poor fit]"},
      {"smiles": "c1cc(SSc2ccncc2)ccn1", "Potency": "inconclusive [inhibitor, single point]"},
      {"smiles": "CC1=C(C(=O)Nc2ccc(F)cc2F)C2(CCCCCC2)OC1=O", "Potency": "inactive"},
      {"smiles": "NC(=O)N/N=C/c1ccccc1OCC(=O)NCc1ccccc1", "Potency": "inconclusive [inhibitor, full curve, poor fit]"},
      {"smiles": "COc1ccc(C2C3=C(N=C4SCC(=O)N42)c2ccccc2CC3)cc1OC", "note": "(configuration not stated)", "Potency": "inconclusive [inhibitor, partial curve]"},
      {"smiles": "O=C(Nc1ccncc1)c1ccc2c(c1)S(=O)(=O)c1ccccc1C2=O", "Potency": "inconclusive [inhibitor, full curve]"},
      {"smiles": "Cc1ccc(-c2ccc(CCC(=O)O)n2CC(=O)O)cc1", "Potency": "inactive"},
      {"smiles": "Nc1ccc(C2(c3ccc(N)cc3)C(=O)Nc3ccccc32)cc1", "Potency": "inconclusive [inhibitor, single point]"},
      {"smiles": "COc1ccc(-c2csc(N(CC3CCCO3)C(=O)c3ccc(C)cc3)n2)cc1", "note": "(configuration not stated)", "Potency": "inconclusive [inhibitor, single point]"},
      {"smiles": "Cc1ccnc(NC(=O)c2c(O)c3ccccc3n(C)c2=O)c1", "Potency": "inactive"},
      {"smiles": "Cc1cc(=O)n2nc(N3CCCC(C(=O)N4CCc5ccccc54)C3)sc2n1", "note": "(configuration not stated)", "Potency": "inconclusive [inhibitor, partial curve]"},
      {"smiles": "Cc1nn(C)c(-c2n[nH]c(=S)n2Cc2ccco2)c1Cl", "Potency": "inconclusive [inhibitor, single point]"},
      {"smiles": "Cc1cc(C)n2nc(SCCC(=O)NCCc3ccccc3)nc2n1", "Potency": "inconclusive [inhibitor, full curve]"},
      {"smiles": "O=C1C(=O)N(CCN2CCOCC2)C(c2ccccn2)/C1=C(/O)c1ccccc1", "note": "(configuration not stated)", "Potency": "inactive"},
      {"smiles": "CC(C)(C)c1nnc(NC(=O)COc2ccc3c(c2)OCO3)s1", "Potency": "inactive"},
      {"smiles": "Cc1occc1-c1nnc(SCC(=O)N2CCCCC2C)o1", "note": "(configuration not stated)", "Potency": "inconclusive [inhibitor, partial curve, poor fit]"},
      {"smiles": "COc1ccc(CN2C(=O)NC(=O)/C(=C\\c3cc(OC)c(OC)c(OC)c3)C2=O)cc1", "Potency": "inconclusive [inhibitor, single point]"},
      {"smiles": "NC(=S)NNc1cccc2cccnc12", "Potency": "inactive"},
      {"smiles": "COC(=O)c1nn(-c2ccc(OC)cc2)c(=O)cc1Oc1cccc(Cl)c1", "Potency": "inconclusive [inhibitor, full curve, poor fit]"},
      {"smiles": "Cn1c(SCC(=O)Nc2ccc3cn[nH]c3c2)nnc1-c1cnccn1", "Potency": "inconclusive [inhibitor, full curve, poor fit]"},
      {"smiles": "COc1cc2c(cc1OC)-c1c3c(cc4c1[C@@H](C2)N(C)CC4)OCO3", "Potency": "inconclusive [inhibitor, full curve, poor fit]"},
      {"smiles": "CN1CCN(c2nc3c(c(=O)n(C)c(=O)n3C)n2Cc2ccccc2)CC1", "Potency": "inconclusive [inhibitor, full curve]"},
      {"smiles": "CCOC(=O)c1cnc(-n2[nH]c(C)cc2=O)[nH]c1=O", "Potency": "inactive"},
      {"smiles": "Cc1ccnc(NC(=O)C2(c3cccs3)CCOCC2)c1", "Potency": "inconclusive [inhibitor, full curve, poor fit]"}
    ]}
  ]
}
